The values that follow come from article PMC4242493.

Some of the results follow. The list includes weakly bound sequences.

For the assay, the target named is MaxL homodimer (UniProt P61244). The assay can be described thus: universal protein-binding microarray (PBM). To be noted: PBS-based mixture, 10 nM His-tagged protein dimer, 2% milk, 200 ng/uL BSA, 50 ng/uL salmon testes DNA, 0.02% TX-100; detection with Alexa 488 anti-His …; high values mean tight binding; most listed sequences are background and not binding sites; double strand, one strand shown.
UniProt P61244, sequence (P61244 whole entry): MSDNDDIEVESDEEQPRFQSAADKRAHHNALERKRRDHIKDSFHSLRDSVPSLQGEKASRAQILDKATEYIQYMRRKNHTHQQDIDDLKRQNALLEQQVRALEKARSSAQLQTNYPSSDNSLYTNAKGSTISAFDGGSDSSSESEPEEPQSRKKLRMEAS
For CCGGGTGA, the binding signal (normalized occupancy) turned out to be 0.0737.

As to AGTGCATA, the binding signal (normalized occupancy) worked out at 0.0847.

On to CTCTGGTC, for which the binding signal (normalized occupancy) is 0.0704.

Consider ACGACTTC, for which the binding signal (normalized occupancy) was 0.0722.

Take AATAGCGT: the binding signal (normalized occupancy) was determined as 0.0809.

Regarding AGGCTAAC, the binding signal (normalized occupancy) amounted to 0.0752.

For AGGTCCCG, the binding signal (normalized occupancy) came to 0.0661.

CATTGTAC: the binding signal (normalized occupancy) stood at 0.0815.

For the sequence AGTTTTCC, the binding signal (normalized occupancy) was found to be 0.0682.

With CGACACCA, the binding signal (normalized occupancy) is 0.0728.

Consider AAAAGTAA, for which the binding signal (normalized occupancy) was 0.0732.

For ACAAATTA, the binding signal (normalized occupancy) was found to be 0.0784.

In the case of TAAACGCA, the binding signal (normalized occupancy) is 0.0757.

On to CTAAAAGA, for which the binding signal (normalized occupancy) turned out to be 0.0757.

As for CAAAAATC, the binding signal (normalized occupancy) turned out to be 0.0745.

Regarding GCAGACGA, the binding signal (normalized occupancy) stood at 0.0777.

In the case of AATCTACT, the binding signal (normalized occupancy) was 0.073.

Turning to GTTATCTA, the binding signal (normalized occupancy) was found to be 0.0754.

CCCGTATA: the binding signal (normalized occupancy) is 0.0781.

In the case of CATTTTGG, the binding signal (normalized occupancy) was 0.0785.

As to CAATGTAA, the binding signal (normalized occupancy) was 0.0768.

For the sequence CATTTTCC, the binding signal (normalized occupancy) was determined as 0.0796.

Consider CATTCCCC, for which the binding signal (normalized occupancy) worked out at 0.075.

With CGAGGTCA, the binding signal (normalized occupancy) stood at 0.0798.

On to AGCCTGTC, for which the binding signal (normalized occupancy) was determined as 0.0723.

For ACCATCAG, the binding signal (normalized occupancy) was determined as 0.0758.

GAGAGATA: the binding signal (normalized occupancy) turned out to be 0.0773.

GAACAGCC: the binding signal (normalized occupancy) turned out to be 0.075.

Consider AAGTAGAA, for which the binding signal (normalized occupancy) worked out at 0.0767.

For the sequence CGCTCATA, the binding signal (normalized occupancy) was 0.077.

In the case of AGGAGCAA, the binding signal (normalized occupancy) worked out at 0.0681.

Consider AGTCGAGG, for which the binding signal (normalized occupancy) amounted to 0.0658.

As to AGCAGAAC, the binding signal (normalized occupancy) was 0.0709.

On to CAGTATCC, for which the binding signal (normalized occupancy) amounted to 0.0765.

As for ATAACACA, the binding signal (normalized occupancy) is 0.0874.

With AGCAAGCT, the binding signal (normalized occupancy) was found to be 0.0661.

Take CGTTGGCC: the binding signal (normalized occupancy) was 0.0726.

For the sequence CCCGTTAA, the binding signal (normalized occupancy) came out at 0.0727.

For the sequence GACGCTAA, the binding signal (normalized occupancy) stood at 0.0729.

On to AAGGATAG, for which the binding signal (normalized occupancy) came to 0.073.

Take CCGAGGGC: the binding signal (normalized occupancy) came out at 0.067.

Take GACGGTTA: the binding signal (normalized occupancy) turned out to be 0.0748.

As for CTATCCTC, the binding signal (normalized occupancy) is 0.0776.

For the sequence AGCCGGGG, the binding signal (normalized occupancy) stood at 0.065.

For the sequence TGTATCAA, the binding signal (normalized occupancy) was determined as 0.0798.

As to CAGCACGG, the binding signal (normalized occupancy) worked out at 0.0854.

In the case of CCTCCGAA, the binding signal (normalized occupancy) amounted to 0.071.

In the case of ATCGGGTG, the binding signal (normalized occupancy) is 0.0771.

Turning to AAATAATT, the binding signal (normalized occupancy) was found to be 0.0755.

Take CGAGACGC: the binding signal (normalized occupancy) came out at 0.0734.

Consider CCGCTCTA, for which the binding signal (normalized occupancy) was 0.0745.

Regarding ATAGGTGG, the binding signal (normalized occupancy) worked out at 0.0801.

For CAAGTTGA, the binding signal (normalized occupancy) turned out to be 0.0728.

Consider ATAATGAA, for which the binding signal (normalized occupancy) amounted to 0.0754.

For CCAGCGTC, the binding signal (normalized occupancy) was 0.0675.

Take AAACCTGC: the binding signal (normalized occupancy) worked out at 0.0679.

For ACACCTTG, the binding signal (normalized occupancy) was found to be 0.0844.

Consider CTTTTCCC, for which the binding signal (normalized occupancy) is 0.0717.

As for ATCACCCA, the binding signal (normalized occupancy) amounted to 0.0757.

Regarding ACTACCGC, the binding signal (normalized occupancy) stood at 0.0731.

As to TAGGTAGA, the binding signal (normalized occupancy) stood at 0.0713.

Turning to CCACGACC, the binding signal (normalized occupancy) is 0.0791.

Consider CGGCGCAG, for which the binding signal (normalized occupancy) is 0.0668.

In the case of CCACGCGA, the binding signal (normalized occupancy) is 0.131.

For TATCGAGA, the binding signal (normalized occupancy) was found to be 0.0735.

As to AACGGTGG, the binding signal (normalized occupancy) was 0.0765.

Consider CGGACTAG, for which the binding signal (normalized occupancy) came to 0.0749.

In the case of TCGGTACA, the binding signal (normalized occupancy) is 0.0824.

Turning to ACCGAGAG, the binding signal (normalized occupancy) was determined as 0.0705.

TATTGTGA: the binding signal (normalized occupancy) is 0.0784.

Consider GTGGGTAA, for which the binding signal (normalized occupancy) came out at 0.0859.

Regarding AGGGCGTA, the binding signal (normalized occupancy) came to 0.0753.

For GTCCAATA, the binding signal (normalized occupancy) was determined as 0.0769.

On to GAGTTACC, for which the binding signal (normalized occupancy) is 0.0732.

On to GACAACCA, for which the binding signal (normalized occupancy) amounted to 0.0786.

For the sequence AACCCAAC, the binding signal (normalized occupancy) came out at 0.0777.

With ACATTACG, the binding signal (normalized occupancy) turned out to be 0.0819.

Consider AACGGGTC, for which the binding signal (normalized occupancy) turned out to be 0.0725.

With ACCATGTC, the binding signal (normalized occupancy) amounted to 0.0794.

For CCCTCTAC, the binding signal (normalized occupancy) came out at 0.0757.

For the sequence CCCGTTCC, the binding signal (normalized occupancy) came to 0.0769.

For GGCACTAA, the binding signal (normalized occupancy) turned out to be 0.0726.

Consider GAACCTGC, for which the binding signal (normalized occupancy) is 0.0735.

Turning to ATAGTAAT, the binding signal (normalized occupancy) came to 0.08.

In the case of GGCGATAA, the binding signal (normalized occupancy) was found to be 0.0792.

As for AAAGCCTG, the binding signal (normalized occupancy) was 0.0738.

For TACCTGCA, the binding signal (normalized occupancy) came out at 0.0797.

Consider CAGCCTCA, for which the binding signal (normalized occupancy) turned out to be 0.0731.

For the sequence ACAAACGC, the binding signal (normalized occupancy) came out at 0.0757.

Consider ATGACGCA, for which the binding signal (normalized occupancy) turned out to be 0.08.

On to AACGGCGT, for which the binding signal (normalized occupancy) is 0.0724.

With ATCTTGTA, the binding signal (normalized occupancy) came out at 0.0777.

In the case of CCACTAGA, the binding signal (normalized occupancy) was found to be 0.0769.

Regarding ACGACGTC, the binding signal (normalized occupancy) turned out to be 0.0746.

On to GAATCGTA, for which the binding signal (normalized occupancy) is 0.079.

Turning to ACTTCATG, the binding signal (normalized occupancy) was found to be 0.0783.

Consider ATGTATAG, for which the binding signal (normalized occupancy) was found to be 0.0889.

As for GTACCCAA, the binding signal (normalized occupancy) turned out to be 0.076.

Regarding ATATTATG, the binding signal (normalized occupancy) turned out to be 0.0846.

CTCGCCAG: the binding signal (normalized occupancy) is 0.0703.

Turning to GACGCCAC, the binding signal (normalized occupancy) came out at 0.0793.

Consider CGATTTAG, for which the binding signal (normalized occupancy) was 0.0724.

With GCGTGCCC, the binding signal (normalized occupancy) stood at 0.0965.

CTTCAGAA: the binding signal (normalized occupancy) is 0.0708.

Turning to AATACTGA, the binding signal (normalized occupancy) came out at 0.0797.

On to CCGGATTA, for which the binding signal (normalized occupancy) amounted to 0.0735.

In the case of GTGGCGCA, the binding signal (normalized occupancy) is 0.0878.

Take CTAAAAAA: the binding signal (normalized occupancy) was found to be 0.0743.

For the sequence ACCATAAC, the binding signal (normalized occupancy) was 0.078.

In the case of ACCATCTG, the binding signal (normalized occupancy) turned out to be 0.0857.

Consider CGCTAGAA, for which the binding signal (normalized occupancy) was determined as 0.0744.

On to CGACATCG, for which the binding signal (normalized occupancy) was 0.0778.

On to CCGTAAGG, for which the binding signal (normalized occupancy) is 0.0697.

Regarding ACGTGACG, the binding signal (normalized occupancy) came out at 0.0972.

GGGTATCA: the binding signal (normalized occupancy) was found to be 0.0751.

Take TGGAGCCA: the binding signal (normalized occupancy) was 0.081.

On to ACAGACTC, for which the binding signal (normalized occupancy) was 0.0752.

On to CATGTCGC, for which the binding signal (normalized occupancy) was found to be 0.0857.

Regarding CCGAAAAG, the binding signal (normalized occupancy) worked out at 0.0704.

On to ATTTCCGG, for which the binding signal (normalized occupancy) is 0.0725.

Consider GGACTGCC, for which the binding signal (normalized occupancy) was found to be 0.0702.

With GGCTCAGA, the binding signal (normalized occupancy) was determined as 0.0699.

Regarding GCTTAGTA, the binding signal (normalized occupancy) is 0.0746.

Regarding CAATCGAG, the binding signal (normalized occupancy) was 0.0731.

Regarding CACCGTGC, the binding signal (normalized occupancy) was determined as 0.0868.

Consider CTTTTAGA, for which the binding signal (normalized occupancy) is 0.0741.

On to AGTTAGAA, for which the binding signal (normalized occupancy) was determined as 0.069.

Regarding AACGGGAC, the binding signal (normalized occupancy) turned out to be 0.0693.

GGGAAGTA: the binding signal (normalized occupancy) stood at 0.0774.

In the case of TCCGAGCA, the binding signal (normalized occupancy) was 0.0717.

Take GACTATTA: the binding signal (normalized occupancy) is 0.077.

Regarding AGGTAGTC, the binding signal (normalized occupancy) turned out to be 0.0724.

On to ATTCCCAG, for which the binding signal (normalized occupancy) stood at 0.0688.

Take CAGTCGTA: the binding signal (normalized occupancy) was determined as 0.067.

For CAGTAATC, the binding signal (normalized occupancy) was found to be 0.0757.

Regarding ACGTCCGC, the binding signal (normalized occupancy) was determined as 0.0704.

With AGGTCATA, the binding signal (normalized occupancy) was 0.0813.

As to AAATAACT, the binding signal (normalized occupancy) came to 0.078.

As to CGGTTGCC, the binding signal (normalized occupancy) is 0.071.

As to CGACATCA, the binding signal (normalized occupancy) amounted to 0.0792.

As for CCATTAGC, the binding signal (normalized occupancy) is 0.0779.

As to CCAGATGG, the binding signal (normalized occupancy) was 0.0817.

On to GTGATGAA, for which the binding signal (normalized occupancy) came to 0.0877.

Turning to CTCGAAAC, the binding signal (normalized occupancy) was 0.0708.

CCAGGAAA: the binding signal (normalized occupancy) is 0.0715.

Turning to CGGTCCTA, the binding signal (normalized occupancy) turned out to be 0.0705.

For the sequence ATTGAATA, the binding signal (normalized occupancy) was 0.0761.

Consider CCGAGCTC, for which the binding signal (normalized occupancy) came to 0.0647.

Turning to ATTAGTAG, the binding signal (normalized occupancy) turned out to be 0.0794.

For AAGCATCC, the binding signal (normalized occupancy) stood at 0.0817.

With CTTGGTTA, the binding signal (normalized occupancy) was 0.0709.

Consider TATTGAGA, for which the binding signal (normalized occupancy) amounted to 0.0781.

Take CTTCCCTC: the binding signal (normalized occupancy) is 0.0745.

With ACGAAATG, the binding signal (normalized occupancy) was found to be 0.0757.

Regarding AAGATCAC, the binding signal (normalized occupancy) came out at 0.0762.

For CTTCGACA, the binding signal (normalized occupancy) amounted to 0.0762.

Turning to AGGAGACA, the binding signal (normalized occupancy) worked out at 0.084.

In the case of GAGCACGC, the binding signal (normalized occupancy) is 0.094.

Turning to GCTGTAAA, the binding signal (normalized occupancy) was determined as 0.0685.

Take AATATTGG: the binding signal (normalized occupancy) stood at 0.0822.

In the case of GAAGGGTA, the binding signal (normalized occupancy) was 0.0708.

Turning to AACAAAGG, the binding signal (normalized occupancy) came to 0.0763.

With AGATGCGC, the binding signal (normalized occupancy) amounted to 0.077.

For the sequence GCGTAGTA, the binding signal (normalized occupancy) was determined as 0.0783.

As to TTAGCAAA, the binding signal (normalized occupancy) is 0.0757.

With AGACATAA, the binding signal (normalized occupancy) was found to be 0.0809.

Turning to ATACGGAC, the binding signal (normalized occupancy) is 0.0761.

CACTCACG: the binding signal (normalized occupancy) was found to be 0.0888.

For CGTGGTTA, the binding signal (normalized occupancy) was found to be 0.0887.

Consider CCCAGCCG, for which the binding signal (normalized occupancy) was determined as 0.0687.

In the case of ACGTCGGG, the binding signal (normalized occupancy) came to 0.0757.

Consider AGCGGGAA, for which the binding signal (normalized occupancy) worked out at 0.0687.
